# Source: a collection of fitness landscapes (doi:10.1126/science.1257360)
# The list shows a part of the results.
# B1: PhoQ; a variant is named by its letters at X, in order, P23837 (parent)
# chain: MKKLLRLFFPLSLRVRFLLATAAVVLVLSLAYGMVALIGYSVSFDKTTFRLLRGESNLFYTLAKWENNKLHVELPENIDKQSPTMTLIYDENGQLLWAQRDVPWLMKMIQPDWLKSNGFHEIEADVNDTSLLLSGDHSIQQQLQEVREDDDDAEMTHSVAVNVYPATSRMPKLTIVVVDTIPVELKSSYMVWSWFIYVLSANLLLVIPLLWVAAWWSLRPIEALAKEVRELEEHNRELLNPATTRELTSLVRNLNRLLKSERERYDKYRTTLTDLTHSLKTPLXXLQXXLRSLRSEKMSVSDAEPVMLEQISRISQQIGYYLHRASMRGGTLLSRELHPVAPLLDNLTSALNKVYQRKGVNISLDISPEISFVGEQNDFVEVMGNVLDNACKYCLEFVEISARQTDEHLYIVVEDDGPGIPLSKREVIFDRGQRVDTLRPGQGVGLAVAREITEQYEGKIVAGESMLGGARMEVIFGRQHSAPKDE
# Variants of: B1
# Assay: enrichment ratio after two sorts for PhoP signalling (ratio (wild type AVST 3.29)); higher = more functional
# Settings: with PhoP (E. coli)
row,Variant,enrichment ratio
1,GFAQ,≤ 0.25
2,DDNK,≤ 0.25
3,NHCW,≤ 0.25
4,NWYE,≤ 0.25
5,IYNI,≤ 0.25
6,GRLG,≤ 0.25
7,HWCR,≤ 0.25
8,AGPF,≤ 0.25
9,GKWD,≤ 0.25
10,SEVG,25.6
11,AFIH,≤ 0.25
12,FEPG,≤ 0.25
13,LAGI,≤ 0.25
14,ERET,≤ 0.25
15,PQIH,≤ 0.25
16,ERFD,≤ 0.25
17,HNSW,≤ 0.25
18,AHDV,≤ 0.25
19,TMDI,≤ 0.25
20,HGVP,≤ 0.25
21,NIMN,≤ 0.25
22,KVHY,≤ 0.25
23,PFHQ,≤ 0.25
24,PKTP,≤ 0.25
25,TPGV,≤ 0.25

row,Variant,enrichment ratio
1,DVGA,≤ 0.25
2,KELA,≤ 0.25
3,VTKD,≤ 0.25
4,KMER,≤ 0.25
5,KSCK,≤ 0.25
6,VAVD,≤ 0.25
7,WYHS,≤ 0.25
8,TIQM,48.5
9,KDFT,≤ 0.25
10,WLLP,≤ 0.25
11,RWNM,≤ 0.25
12,PTKI,≤ 0.25
13,WMTW,≤ 0.25
14,LRDK,≤ 0.25
15,EHTC,≤ 0.25
16,YEFD,≤ 0.25
17,NMIH,≤ 0.25
18,GWTV,≤ 0.25
19,DRFQ,≤ 0.25
20,EYMV,≤ 0.25
21,TCDQ,≤ 0.25
22,RVCI,≤ 0.25
23,FVHR,≤ 0.25
24,KSHN,≤ 0.25
25,KHVY,≤ 0.25

row,Variant,enrichment ratio
1,ICDP,≤ 0.25
2,SFPV,≤ 0.25
3,TSKA,≤ 0.25
4,WTLS,≤ 0.25
5,FYPP,≤ 0.25
6,LDAI,≤ 0.25
7,KLDQ,≤ 0.25
8,PHQW,≤ 0.25
9,KQYM,≤ 0.25
10,FAAY,≤ 0.25
11,TSIH,≤ 0.25
12,HDPI,≤ 0.25
13,EQCY,≤ 0.25
14,WMPM,≤ 0.25
15,YLMW,≤ 0.25
16,SHFD,≤ 0.25
17,FYPW,≤ 0.25
18,AMPF,≤ 0.25
19,FHID,≤ 0.25
20,PWSE,≤ 0.25
21,ICTY,≤ 0.25
22,WQHY,≤ 0.25
23,HDQF,≤ 0.25
24,QGVK,≤ 0.25
25,NLFR,≤ 0.25

row,Variant,enrichment ratio
1,TSKF,≤ 0.25
2,RWHP,≤ 0.25
3,TMEQ,≤ 0.25
4,FEME,≤ 0.25
5,FNYT,≤ 0.25
6,TERG,≤ 0.25
7,IWMC,≤ 0.25
8,SHPN,≤ 0.25
9,HILN,≤ 0.25
10,YAVQ,≤ 0.25
11,IKFI,≤ 0.25
12,NECT,14.1
13,KQCM,≤ 0.25
14,FDHR,≤ 0.25
15,QVCY,≤ 0.25
16,TAYP,≤ 0.25
17,SFPL,≤ 0.25
18,TTDF,16.9
19,LEVM,0.945
20,WFIN,≤ 0.25
21,FVTI,≤ 0.25
22,KHIC,≤ 0.25
23,PTIT,≤ 0.25
24,SHEY,≤ 0.25
25,LDDQ,≤ 0.25

row,Variant,enrichment ratio
1,SAGL,6.17
2,AIVT,4.68
3,TTTA,5.71
4,AFGG,≤ 0.25
5,PTYQ,≤ 0.25
6,LSAQ,≤ 0.25
7,LTSP,≤ 0.25
8,SQEL,≤ 0.25
9,IFIF,≤ 0.25
10,LDDF,≤ 0.25
11,EDYQ,≤ 0.25
12,PGMA,≤ 0.25
13,FIAW,≤ 0.25
14,QARW,≤ 0.25
15,NSGL,≤ 0.25
16,ENCR,≤ 0.25
17,GPCC,≤ 0.25
18,RDYS,≤ 0.25
19,IICA,≤ 0.25
20,LFNW,≤ 0.25
21,KYNV,≤ 0.25
22,WQMH,≤ 0.25
23,SQSE,11.4
24,MCMQ,5.75
25,YTQY,≤ 0.25

row,Variant,enrichment ratio
1,HCFF,≤ 0.25
2,YWYY,≤ 0.25
3,DMVT,≤ 0.25
4,HMEV,≤ 0.25
5,FQHT,≤ 0.25
6,WNVH,≤ 0.25
7,LHDQ,≤ 0.25
8,IDRK,≤ 0.25
9,ESSK,≤ 0.25
10,AMCS,5.27
11,HEFK,≤ 0.25
12,DFQI,≤ 0.25
13,ELVA,≤ 0.25
14,QSTQ,≤ 0.25
15,LRAS,≤ 0.25
16,ELQH,≤ 0.25
17,TDHD,≤ 0.25
18,SSAF,7.52
19,NVDL,≤ 0.25
20,KSQT,≤ 0.25
21,YYIT,≤ 0.25
22,EQVG,≤ 0.25
23,HISC,≤ 0.25
24,MKAG,≤ 0.25
25,PPKY,≤ 0.25

row,Variant,enrichment ratio
1,TNPW,≤ 0.25
2,PTVL,≤ 0.25
3,ITPV,≤ 0.25
4,FMLH,0.413
5,RRCC,≤ 0.25
6,YPQL,≤ 0.25
7,DAWP,≤ 0.25
8,WGYH,≤ 0.25
9,ENTA,≤ 0.25
10,TFIW,≤ 0.25
11,GSHH,≤ 0.25
12,AQWK,≤ 0.25
13,GCDA,≤ 0.25
14,SMKV,≤ 0.25
15,FEEL,≤ 0.25
16,SRQM,≤ 0.25
17,SVMD,3.38
18,GSSQ,8.65
19,VCFV,≤ 0.25
20,FGPI,≤ 0.25
21,IKYC,≤ 0.25
22,YNLP,≤ 0.25
23,SDFC,≤ 0.25
24,GLHW,≤ 0.25
25,IAPA,≤ 0.25

row,Variant,enrichment ratio
1,IDAG,≤ 0.25
2,IIEC,≤ 0.25
3,FDQT,≤ 0.25
4,FMYK,≤ 0.25
5,KCEN,≤ 0.25
6,KTHI,≤ 0.25
7,MFQS,≤ 0.25
8,SWVT,≤ 0.25
9,LSTQ,≤ 0.25
10,VCGF,≤ 0.25
11,TEHD,≤ 0.25
12,KCVF,≤ 0.25
13,SRWV,≤ 0.25
14,QVFY,≤ 0.25
15,IDPM,≤ 0.25
16,WDNK,≤ 0.25
17,GQVA,≤ 0.25
18,YSEP,≤ 0.25
19,IPFK,≤ 0.25
20,SKTM,6.18
